Out of some 310,000 compounds screened, about 2,200 (0.71%) showed an effect of 50% or more. Effects have a minus sign here. The list shows a part of the results.
The compounds below were run against human ether-à-go-go-related gene (hERG) potassium channel (human, UniProt Q12809) (assay: primary screen, population patch clamp on CHO cells stably expressing hERG).
Sequence of human ether-à-go-go-related gene (hERG) potassium channel (Q12809 whole entry, looked up): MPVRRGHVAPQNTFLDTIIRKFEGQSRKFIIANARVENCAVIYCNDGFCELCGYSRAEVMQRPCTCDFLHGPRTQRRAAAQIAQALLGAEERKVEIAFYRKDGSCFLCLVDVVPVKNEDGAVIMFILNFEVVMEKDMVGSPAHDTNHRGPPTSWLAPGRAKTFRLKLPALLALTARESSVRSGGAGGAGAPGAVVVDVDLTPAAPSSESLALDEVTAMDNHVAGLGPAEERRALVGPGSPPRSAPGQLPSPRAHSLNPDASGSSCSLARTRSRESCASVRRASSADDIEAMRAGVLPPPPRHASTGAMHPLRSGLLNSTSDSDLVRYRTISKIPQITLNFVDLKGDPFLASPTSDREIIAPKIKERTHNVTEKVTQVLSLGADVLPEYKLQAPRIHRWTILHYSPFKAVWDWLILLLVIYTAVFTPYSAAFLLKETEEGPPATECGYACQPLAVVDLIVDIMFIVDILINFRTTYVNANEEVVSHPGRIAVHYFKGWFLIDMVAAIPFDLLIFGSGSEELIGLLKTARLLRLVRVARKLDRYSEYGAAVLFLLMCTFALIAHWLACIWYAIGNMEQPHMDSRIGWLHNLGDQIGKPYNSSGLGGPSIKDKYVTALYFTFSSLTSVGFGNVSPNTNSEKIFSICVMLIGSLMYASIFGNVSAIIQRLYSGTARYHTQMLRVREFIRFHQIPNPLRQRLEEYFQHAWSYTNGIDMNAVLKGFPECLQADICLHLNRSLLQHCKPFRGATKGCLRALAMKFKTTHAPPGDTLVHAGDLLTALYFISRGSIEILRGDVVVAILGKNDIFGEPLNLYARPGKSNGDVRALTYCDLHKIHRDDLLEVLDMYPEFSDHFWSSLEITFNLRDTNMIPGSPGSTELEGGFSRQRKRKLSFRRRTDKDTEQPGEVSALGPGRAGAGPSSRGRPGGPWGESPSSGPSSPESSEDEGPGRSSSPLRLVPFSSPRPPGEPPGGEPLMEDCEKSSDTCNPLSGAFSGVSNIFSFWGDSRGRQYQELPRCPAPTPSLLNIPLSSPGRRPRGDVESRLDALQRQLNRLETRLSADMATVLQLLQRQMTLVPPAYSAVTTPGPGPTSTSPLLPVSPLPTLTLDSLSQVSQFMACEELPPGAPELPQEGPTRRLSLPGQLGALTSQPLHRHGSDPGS

Q: Cc1ccc(S(=O)(=O)NCc2cccnc2)cc1 was tested. Which “hERG current change (%, negative = inhibition) at 1uM” value did it give?
A: The value was 13%.

Q: For CC(C)(C)c1ccc(C2=NC(=O)C(CC(=O)O)S2)cc1 (centres unmarked), which “hERG current change (%, negative = inhibition) at 1uM” value is on record?
A: The value was 18.2%.

Q: How did the “hERG current change (%, negative = inhibition) at 1uM” value turn out when CC1=C(C(=O)Nc2cc(C)ccc2C)C(c2cccs2)NC(=S)N1 (centres unmarked) was run?
A: The value was 9.49%.

Q: COc1cnc(-c2ccccn2)nc1Oc1ccccc1Cl was tested. Which “hERG current change (%, negative = inhibition) at 1uM” value did it give?
A: Its value is 20.4%.

Q: How did the “hERG current change (%, negative = inhibition) at 1uM” value turn out when Cc1cc(C)cc(OCC(=O)NCCN2CCOCC2)c1 was run?
A: Its value is 2.67%.

Q: For CCCCCCC(=O)N1C/C=C\C(c2ccc(OC)cc2)N(Cc2ccc(F)cc2)C(=O)[C@H]1Cc1ccccc1 (some centres unmarked), which “hERG current change (%, negative = inhibition) at 1uM” value is on record?
A: Its value is 2.56%.

Q: How did the “hERG current change (%, negative = inhibition) at 1uM” value turn out when CCSc1nc2c(cnn2-c2ccc(C)cc2)c(=O)[nH]1 was run?
A: The value was 12.9%.

Q: With CNc1nc(OC)nc(N2CCOCC2)n1 as the compound, how does the “hERG current change (%, negative = inhibition) at 1uM” value read?
A: Its value is 10.7%.

Q: Which “hERG current change (%, negative = inhibition) at 1uM” value does the source give for CC1CN(C(=O)C2CC(=O)N(c3ccc(Cl)cc3)C2)CC(C)O1 (centres unmarked) here?
A: Its value is 2.47%.

Q: For Cc1noc(C)c1CSc1ccccc1C(=O)O, which “hERG current change (%, negative = inhibition) at 1uM” value is on record?
A: The value was 17.6%.

Q: With CN(CCOc1ccc(Cl)cc1)C(=O)c1ccccc1SCC(=O)N1CCCC1 as the compound, how does the “hERG current change (%, negative = inhibition) at 1uM” value read?
A: The value was -0.619%.

Q: COc1ccc(CCNC(=S)N2CCN(S(=O)(=O)c3ccccc3)CC2)cc1 was tested. Which “hERG current change (%, negative = inhibition) at 1uM” value did it give?
A: The value was 10.2%.

Q: How did the “hERG current change (%, negative = inhibition) at 1uM” value turn out when Cc1ccc(COC(=O)c2ccc3c(c2)C(=O)N(CCCN2CCOCC2)C3=O)cc1 was run?
A: Its value is 7.6%.

Q: For C=CCN1N=C(c2ccc(Cl)s2)CSC1=O, which “hERG current change (%, negative = inhibition) at 1uM” value is on record?
A: Its value is 22.3%.

Q: Which “hERG current change (%, negative = inhibition) at 1uM” value does the source give for COc1ccccc1NS(=O)(=O)c1cc(NC(=O)CCC2CCCC2)ccc1N1CCOCC1 here?
A: Its value is 9.04%.

Q: How did the “hERG current change (%, negative = inhibition) at 1uM” value turn out when O=C(COC(=O)COc1cccc2ccccc12)NCC(F)(F)F was run?
A: The value was 7.55%.

Q: How did the “hERG current change (%, negative = inhibition) at 1uM” value turn out when Cc1cc(C)c2nc(SCC(=O)Nc3ccc(S(=O)(=O)N4CCCC4)cc3)c(C)cc2c1 was run?
A: Its value is -3.94%.

Q: With Cc1ccc(Nc2nc3ccccc3n3cnnc23)c(Cl)c1 as the compound, how does the “hERG current change (%, negative = inhibition) at 1uM” value read?
A: The value was 8.03%.

Q: With COc1ccccc1NC(=O)CN1CCN(c2ccccc2)CC1 as the compound, how does the “hERG current change (%, negative = inhibition) at 1uM” value read?
A: Its value is 12.4%.

Q: How did the “hERG current change (%, negative = inhibition) at 1uM” value turn out when CCCCC(=O)Nc1ccc(C(=O)NCCCn2ccnc2)cc1 was run?
A: Its value is -5.79%.

Q: For O=C(COCc1cc(-c2cccs2)on1)NC1CCCCC1, which “hERG current change (%, negative = inhibition) at 1uM” value is on record?
A: The value was 18.4%.

Q: Which “hERG current change (%, negative = inhibition) at 1uM” value does the source give for O=C(Nc1ccc2c(c1)CCCN2C(=O)c1cccs1)c1c(F)cccc1Cl here?
A: The value was 10.5%.

Q: CCCC[n+]1cc(=N)o[n-]1.Cl was tested. Which “hERG current change (%, negative = inhibition) at 1uM” value did it give?
A: The value was 6.54%.

Q: Which “hERG current change (%, negative = inhibition) at 1uM” value does the source give for CC(C)CC(N=Cc1c(O)c2ccccc2oc1=O)C(=O)O (centres unmarked) here?
A: Its value is 11.1%.

Q: Which “hERG current change (%, negative = inhibition) at 1uM” value does the source give for COc1cccc(-c2nnc(SCCC(=O)O)n2C)c1 here?
A: The value was 5.01%.

Q: C[C@H](NC(=O)c1nc[nH]c1C(=O)N[C@@H](Cc1ccccc1)C(=O)OCc1ccccc1)C(=O)OC(C)(C)C was tested. Which “hERG current change (%, negative = inhibition) at 1uM” value did it give?
A: The value was 10.7%.
